Test results reported in paper PMC4336329 (PLoS ONE, 2015).
The whole screen tested about 310,000 compounds, of which about 2,200 (0.71%) showed an effect of 50% or more. Effects have a minus sign here. The list shows a part of the results.

The compounds below were run against human ether-à-go-go-related gene (hERG) potassium channel (human, UniProt Q12809) (assay: primary screen, population patch clamp on CHO cells stably expressing hERG).
human ether-à-go-go-related gene (hERG) potassium channel, sequence (Q12809 whole entry, looked up): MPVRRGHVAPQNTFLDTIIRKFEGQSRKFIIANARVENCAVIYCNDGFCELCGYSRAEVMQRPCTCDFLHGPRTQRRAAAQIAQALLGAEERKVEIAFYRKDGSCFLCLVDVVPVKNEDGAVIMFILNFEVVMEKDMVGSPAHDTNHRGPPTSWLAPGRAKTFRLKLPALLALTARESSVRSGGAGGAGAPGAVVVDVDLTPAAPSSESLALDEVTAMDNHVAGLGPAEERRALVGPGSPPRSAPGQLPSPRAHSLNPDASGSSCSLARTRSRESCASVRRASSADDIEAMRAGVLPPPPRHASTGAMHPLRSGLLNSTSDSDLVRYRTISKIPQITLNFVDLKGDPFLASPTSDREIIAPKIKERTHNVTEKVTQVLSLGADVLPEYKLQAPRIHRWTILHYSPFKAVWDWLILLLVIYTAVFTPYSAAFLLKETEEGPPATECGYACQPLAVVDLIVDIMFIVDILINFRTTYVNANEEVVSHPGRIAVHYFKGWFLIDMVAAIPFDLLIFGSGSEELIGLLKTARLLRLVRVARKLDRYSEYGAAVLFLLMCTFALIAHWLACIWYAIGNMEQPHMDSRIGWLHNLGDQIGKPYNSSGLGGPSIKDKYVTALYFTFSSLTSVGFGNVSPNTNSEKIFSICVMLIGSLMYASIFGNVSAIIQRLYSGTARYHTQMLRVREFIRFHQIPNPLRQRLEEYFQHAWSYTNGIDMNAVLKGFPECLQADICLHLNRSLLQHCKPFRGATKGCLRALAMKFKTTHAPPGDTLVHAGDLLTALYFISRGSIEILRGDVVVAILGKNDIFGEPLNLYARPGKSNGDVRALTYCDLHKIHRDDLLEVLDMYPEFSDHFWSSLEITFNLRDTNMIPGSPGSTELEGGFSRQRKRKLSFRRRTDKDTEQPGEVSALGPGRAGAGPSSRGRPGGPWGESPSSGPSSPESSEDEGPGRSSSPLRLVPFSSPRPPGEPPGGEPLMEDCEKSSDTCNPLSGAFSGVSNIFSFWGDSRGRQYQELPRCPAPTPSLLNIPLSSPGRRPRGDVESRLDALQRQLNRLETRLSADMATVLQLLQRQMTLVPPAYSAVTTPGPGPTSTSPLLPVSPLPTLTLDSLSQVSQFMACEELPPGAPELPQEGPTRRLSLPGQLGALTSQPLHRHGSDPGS

Row | Compound | hERG current change (%, negative = inhibition) at 1uM
1 | Fc1ccccc1Nc1nc2ccccc2n2nnnc12 | 8.79%
2 | CCc1oc2c(C)c(O)ccc2c(=O)c1-c1ccc2ccccc2n1 | 15.9%
3 | Cc1ccc(C2=NN=C(NC(=O)CSc3nnc4c5ccccc5n(C)c4n3)SC2)cc1 | 8.27%
4 | CN(CC(=O)Nc1ccc(F)cc1)C(=O)COC(=O)COc1ccc(C#N)cc1 | 1.25%
5 | CCOc1ccc(NC(=S)Nc2cccc3ccccc23)cc1 | 10.6%
6 | CCOc1ccc(CNC(=O)CCCOc2cc(=O)n(C)c3ccccc23)cc1 | -5.83%
7 | COc1ccc(CNC(=O)Cc2c(C(=O)O)[nH]c3ccccc23)cc1 | 3.03%
8 | COC(=O)c1cn(C(=O)c2cc(OC)c(OC)c(OC)c2)c2ccccc12 | 5.38%
9 | CCCN(CCC)c1nc(N)nc(-c2cc(Cl)ccc2OC)n1 | 9.99%
10 | CC1(c2ccc3noc(-c4cccc(F)c4)c3c2)OCCO1 | 6.35%
11 | CC(C)C(=O)Nc1ccc2c(c1)nc(CCN1CCN(c3ccccc3)CC1)n2C | -2.92%
12 | CCc1onc(C)c1C(=O)Nc1ccc(N2CCOCC2)cc1 | 15.9%
13 | Cc1cc(C(=O)Nc2ccncc2)ccc1[N+](=O)[O-] | -0.659%
14 | CC1CCN(c2ccc(C(=O)NCc3cccs3)cn2)CC1 | 16.8%
15 | Cc1cccn2c(=O)c3cc(C(=O)O)n(C)c3nc12 | 6.29%
16 | CCOc1cccc2sc(N(CCN(CC)CC)C(=O)c3cccc([N+](=O)[O-])c3)nc12.Cl | -44.9%
17 | O=C(NCCS(=O)(=O)c1ccc(Br)cc1)c1ccc(Cl)cc1 | 0.0459%
18 | Nc1c2c(nc3ccc(Br)cc13)N(c1ccccc1)CC2.O=C(O)C(=O)O | -6.04%
19 | CCN1C(=O)NC(c2ccccc2)(c2ccccc2)C1=O | 14.9%
20 | Cn1c(=O)c(C(=O)NCC2CCCO2)c(O)c2ccccc21 (stereo not drawn) | 0.171%
21 | Nc1ccc(C(=O)Nc2cccc3ncccc23)cc1 | 15.2%
22 | CCc1ccc(N2CN(CCc3ccccc3)CNC2=S)cc1 | 13.5%
23 | CS(=O)(=O)N1CCN(c2ccc(C(=O)NC3C4CC5CC(C4)CC3C5)cc2[N+](=O)[O-])CC1 (stereo not drawn) | 1.24%

Row | Compound | hERG current change (%, negative = inhibition) at 1uM
24 | CCNC(=S)N/N=C/c1c(C)nn(-c2cccc(Cl)c2)c1Cl | 9.19%
25 | O=Cc1ccc(-n2nncc2-c2ccc([N+](=O)[O-])cc2)cc1 | -12.4%
26 | COC(=O)C1=C(C)NC2=C(C(=O)CCC2)C1c1cccc(C)n1 (stereo not drawn) | 0.397%
27 | COc1ccc(C(=O)c2c(-c3ccsc3)oc3ccc(-c4ccc(OC)cc4)cc23)cc1 | -1.42%
28 | Cn1nnc2cc(C(=O)N3CCCCCC3)ccc21 | -12.4%
29 | CCCCn1c(N)c(N(CCOC)C(=O)C2CCN(c3ncnc4sc(C)c(C)c34)CC2)c(=O)[nH]c1=O | 4.7%
30 | O=C(Nc1c(-c2ccccc2)nc2ccc(Cl)cn12)c1cccs1 | 14.3%
31 | COc1ccc(NC(=O)C2CCCN(c3cnccn3)C2)cc1 (stereo not drawn) | 15.3%
32 | O=S(=O)(N/N=C\c1cn(-c2ccccc2)nc1-c1ccccc1)c1ccccc1 | 10.1%
33 | Cc1cc(C(=O)Nc2ccc(Br)cc2F)n(-c2ccccc2)n1 | 9.9%
34 | O=C(Cn1nc(C(=O)O)c2ccccc2c1=O)Nc1cccc(S(=O)(=O)N2CCOCC2)c1 | 6.84%
35 | Cc1ccccc1-c1nc(CS(=O)(=O)CC(=O)N2CCc3ccccc32)c(C)o1 | -4.21%
36 | NC1=NC[C@H](Cc2ccccc2)N1CCc1cccc(F)c1 | 7.61%
37 | CCOC1(C(F)(F)F)NC(=O)N(Cc2ccc(OC)cc2)C1=O (stereo not drawn) | 2.02%
38 | COc1ccc(C2=NCCNC(C(F)(F)F)=C2)cc1 | -3.71%
39 | CC(=O)n1cc(/C=N/NC(=O)c2ccccc2O)c2ccccc21 | 15%
40 | Cn1nc([N+](=O)[O-])c(C(C#N)c2nc3ccccc3n2C)c(Cl)c1=O (stereo not drawn) | 13.6%
41 | Cc1ccc(OCC(=O)NCCCNC(=O)c2ccncc2)cc1 | 11%
42 | Cc1ccc(S(=O)(=O)N2CCOCC2)cc1C(=O)OC(C)C(=O)c1ccccc1 (stereo not drawn) | 6.3%
43 | COc1ccc(NC(=O)COC(=O)CCc2nc3ccccc3c(=O)[nH]2)c(OC)c1 | 5.41%
44 | O=[N+]([O-])c1nn(-c2ccc3c(c2)OCCO3)n(O)c1=NCc1ccc(F)cc1Cl | 0.671%
45 | O=C(Nc1cnccc1C(F)(F)F)NC1CCCCC1 | 8.7%
46 | CCOc1ccc(C(CC(=O)O)NC(=O)c2cccs2)cc1OC (stereo not drawn) | 10.2%

Row | Compound | hERG current change (%, negative = inhibition) at 1uM
47 | CC(=O)NS(=O)(=O)c1ccc(NC(=O)CSc2ccc(C)cc2)cc1 | 11.6%
48 | COc1ccccc1NC(=O)Cn1nc(-c2ccc(Cl)cc2)c2ccccc2c1=O | 5.81%
49 | CCn1c(C(C)NC(=O)c2cccc(C)c2)nc2ccccc21 (stereo not drawn) | -7.81%
50 | CCS(=O)(=O)N1CCCC(C(=O)NC2CCCCC2C)C1 (stereo not drawn) | 0.454%
51 | CC(C)=CCN1CCN(Cc2cc(CC(C)C)n[nH]2)CC1CCO (stereo not drawn) | 4.37%
52 | O.c1ccc2c(CN3CCN(C4CCCCC4)CC3)c[nH]c2c1 | -3.51%
53 | C=CCSc1nc2c(c(=O)[nH]c(=O)n2C)n1Cc1ccccc1 | -2.55%
54 | COc1cccc(CN2CC(C(=O)N3CCOCC3)CCC2=O)c1 (stereo not drawn) | 54.7%
55 | COc1ccccc1CNC(=O)C(=O)NCC1CCCN1S(=O)(=O)c1cccs1 (stereo not drawn) | 16.1%
56 | CCOc1cc(C(=O)N2CCN(c3ccccn3)CC2)cc(OCC)c1OCC | 15.5%
57 | Cc1ccc(C(C)NC(=O)Cc2cccs2)c(C)c1 (stereo not drawn) | 9.71%
58 | O=C(N/N=C/CCc1ccccc1)C1CCCCC1 | 11.6%
59 | O=C(c1ccccc1)N1CCC2(CC1)NCCc1[nH]cnc12 | 16.7%
60 | CC(C)(C)NC(=O)COC(=O)c1ccc(S(=O)(=O)N2CCCCCC2)cc1 | 10%
61 | COc1ccc(/C(C)=N/NC(=O)c2nnn(-c3nonc3N)c2CN(C)c2ccccc2)cc1 | 8.13%
62 | COc1ccc(/C=C/C(=O)ONC2=NCCCCC2)cc1OC | 12.7%
63 | CCOc1ccc(S(=O)(=O)Nc2nccs2)cc1 | 15.7%
64 | Cc1cc(NC(=O)CCC2CCCC2)no1 | 14.5%
65 | COC(=O)Cc1c(C(=O)OC)nnn1-c1cccc(C(F)(F)F)c1 | 9.3%
66 | O=C(NCCCN1CCOCC1)c1cc(-c2ccc(Cl)s2)nc2ccccc12 | 4.54%
67 | O=C(NCC1CCCO1)C1CCN(S(=O)(=O)c2cccnc2)CC1 (stereo not drawn) | 2.19%
68 | O=C(O)c1cccc(-n2cccc2C=C2C(=O)c3ccccc3C2=O)c1 | 11.5%
69 | Clc1cccc(/C=N\Nc2nccs2)c1 | -0.404%

Row | Compound | hERG current change (%, negative = inhibition) at 1uM
70 | Cc1ccc(NC(=S)NC2CCN(Cc3ccccc3)CC2)c(C)c1 | -0.78%
71 | Cc1ccc(NC(=O)Cc2ccc3c(c2)CCCC3)cc1C | -4.05%
72 | COc1ccc(CNC(=O)COC(=O)c2ccccn2)cc1 | 4.36%
73 | Cc1nc2ccccc2c(=O)n1-c1ccncc1 | 12.8%
74 | CCOC(=O)C1=C(C)N(CCCC(=O)NCc2ccc3c(c2)OCO3)C(=O)NC1c1ccc(Br)cc1 (stereo not drawn) | 12.5%
75 | COc1ccc(/C(C)=N/NC(=O)c2nnn(-c3nonc3N)c2-c2ccccc2)cc1 | 14.1%
76 | COC(=O)c1ccc(S(=O)(=O)NCc2ccccn2)n1C | 14.5%
77 | CCCC(C(=O)NC(C)(C)C)N(CC1CCCO1)C(=O)CNS(=O)(=O)c1ccc(F)cc1 (stereo not drawn) | 15.7%
78 | COC(=O)c1cccc(S(=O)(=O)N2CCC(c3nc4ccccc4o3)CC2)c1 | 7.19%
79 | Cc1cccc(N2CCN(C(=O)Cn3cccc3)CC2)c1C | 12.5%
80 | Cn1cccc1Cc1nnc(SCC(=O)Nc2nccs2)n1C | 11.2%
81 | CC(C)(C)c1ccc(S(=O)(=O)Nc2ccccn2)cc1 | 6.68%
82 | O=C(CNC(=O)c1ccncc1)N/N=C/c1ccc(Br)cc1 | 5.38%
83 | COc1c(S(=O)(=O)N2CCN(c3ccc(F)cc3)CC2)ccc(Cl)c1Cl | 11.5%
84 | Cc1nn(C(C)(C)C)c(C)c1/C=N/OC(=O)Nc1ccc(Cl)cc1 | 6.19%
85 | CC(C)Cc1nc(SCC(=O)N2CCCCC2)c2c(=O)n(C)c(=O)n(C)c2n1 | 3.87%
86 | O=C(c1ccc2nccnc2c1)N1CCN(c2cccc(C(F)(F)F)c2)CC1 | 0.436%
87 | O=C(NCc1ccco1)C(=O)NCC1OCCCN1S(=O)(=O)c1ccc(F)cc1 (stereo not drawn) | 10%
88 | O=C1NC(=O)C2(COC(c3ccccc3Cl)OC2)S1 (stereo not drawn) | 13.6%
89 | CCOC(=O)C1=C(CN2CCN(C(=O)c3ccco3)CC2)NC(=O)NC1c1ccc(OC)cc1 (stereo not drawn) | -38%
90 | CCCCC(=O)Nc1ccnc(-c2cccnc2)n1 | 6.64%
